The results in this text go back to PubChem BioAssay AID1240 (Sanford-Burnham Center for Chemical Genomics, 2008).

The structures appear in SMILES notation. Out of some 50,000 compounds screened, about 800 (1.6%) showed an effect of 50% or more. Some of the results follow.

The target in this experiment is Bcl-2-like protein 10 (Homo sapiens) (UniProt Q9HD36). Put plainly: TR3 peptide-Bcl-B binding displacers, biochemical primary FP assay, phenotype converters (AID 1240).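 Also: 0% = Bcl-B with tracer peptide and DMSO and 100% = tracer peptide lacking Bcl-B.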 Conditions: GST-Bcl-B / FITC-TR3 peptide fluorescence polarization; stronger effect = higher value; compound at 3.75 mg/L.
UniProt Q9HD36, sequence (Q9HD36 whole entry, looked up): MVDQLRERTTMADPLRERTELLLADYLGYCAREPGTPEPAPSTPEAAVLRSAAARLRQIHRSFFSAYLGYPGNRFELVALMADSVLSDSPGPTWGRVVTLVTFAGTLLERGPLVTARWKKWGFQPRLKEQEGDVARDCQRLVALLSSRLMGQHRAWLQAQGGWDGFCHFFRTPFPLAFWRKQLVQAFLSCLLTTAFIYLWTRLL
For the compound `CCOC(=O)c1cnn2c(C)cc(-c3ccc(F)cc3)nc12`, the displacement is -1.8%.

Take `CCOC(=O)C(CC)Oc1ccc2c(C)cc(=O)oc2c1` (stereo not given): the displacement was -11.3%.

Regarding `Cc1ccc(CN2C(=O)C(C)(C)N(C(=O)c3cccc([N+](=O)[O-])c3)c3ccccc32)c(C)c1`, the displacement is 0.4%.

For the compound `O=C(Nc1ccc([N+](=O)[O-])cn1)C1c2ccccc2Oc2ccccc21`, the displacement is 7.1%.

As to `Cc1ccccc1C(=O)Nc1cccc(NC(=O)c2cccc(Cl)c2)c1`, the displacement was 10.5%.

For the compound `c1ccc(Oc2cccc(CN3CCN(Cc4ccncc4)CC3)c2)cc1`, the displacement worked out at 0.4%.

With `CCOC(=O)c1ccccc1NC(=O)c1sc(NC(=O)C2CC2)c(C(=O)OCC)c1C`, the displacement is -2.5%.

Consider `CCN(CC)c1nc(-c2ccccc2)c2cc(Cl)ccc2n1`, for which the displacement was -1.2%.

In the case of `Cc1ccc2c(c1)-c1c(ssc1=S)C(C)(C)N2C(=O)c1ccco1`, the displacement was -6%.

For `O=C1/C(=C/c2c3ccccc3nc3ccccc23)Sc2ccccc21`, the displacement is -0.5%.

Consider `COC(=O)c1c(NC(=O)c2ccc(OC)c(OC)c2)sc2c1CCC(C)C2` (stereo not given), for which the displacement was found to be 8.9%.

For `O=C(Nc1ccc(I)cc1Cl)c1cccc(Cl)c1`, the displacement stood at 11.6%.

As to `O=C(Nc1ccccc1)Nc1nnc(-c2ccccc2)s1`, the displacement is 6.4%.

Take `COc1ccc(C(=O)/C=C/C=C(Cl)Cl)cc1`: the displacement was determined as 20.4%.

Take `CC(=O)N(CCN(C(C)=O)c1ccccc1C)c1ccccc1C`: the displacement was -0.1%.

For the compound `CCN(CC)CC#CC(C)(C)OC(C)=O`, the displacement is -12.3%.

`O=C(Nc1ccc(-c2nc3ccccc3[nH]2)cc1)c1cccs1`: the displacement is -7.9%.

Take `CC(C)c1ccc(NC2=NS(=O)(=O)c3cc([N+](=O)[O-])ccc32)cc1`: the displacement was -8.3%.

For `COc1ccccc1CNC(=O)C1CC(=O)N(c2ccc(C)cc2)C1` (stereo not given), the displacement amounted to 5.1%.

As to `COc1ccccc1NC(=O)C1=C(C)NC(=S)NC1c1ccccc1Br` (stereo not given), the displacement is -20.5%.

For the compound `CC(=O)c1c(C)[nH]n(-c2ccccc2)c1=O`, the displacement came to 5.2%.

As for `COc1ccc(Br)cc1C(=O)Nc1nc(C)cs1`, the displacement is -8.9%.

`COc1ccc(C2C(C(C)=O)=C(Nc3ccc(Br)cc3)CC(C)(O)C2C(C)=O)cc1` (stereo not given): the displacement stood at 90.9%.

For `CCOC(=O)C1=C(C)N=c2s/c(=C\c3ccc(N(C)C)cc3)c(=O)n2C1c1ccc(OC)cc1` (stereo not given), the displacement was 4.8%.

In the case of `Cc1cc(C)c(C#N)c(SCC(=O)c2ccc(O)c(O)c2)n1`, the displacement came out at 5.8%.

As to `COc1cc(Br)c(Nc2nc(-c3cccnc3)cs2)c(Br)c1`, the displacement was -8.4%.

Regarding `O=C1c2ccc(-c3nc4ccccc4c(=O)o3)cc2C(=O)N1c1nccs1`, the displacement was determined as 8.4%.

For `CC(C)OC(=O)CSC1=C(C#N)C(c2ccc(Cl)cc2Cl)CC(=O)N1` (stereo not given), the displacement is -0.6%.

Regarding `Cc1cc(C)n2c(SCc3ccc(Br)cc3)nnc2n1`, the displacement was -4%.

Regarding `CN(C)c1ccc(/C=N/NC(=O)CN2CCCCC2)cc1Br`, the displacement was found to be 3.3%.

Regarding `N#CCC(=O)N1CCN(C(c2ccccc2)c2ccccc2)CC1`, the displacement turned out to be 0.5%.

With `CSCCOC(=O)C1=C(C)NC(=O)NC1c1ccc([N+](=O)[O-])cc1` (stereo not given), the displacement turned out to be 5.2%.

In the case of `O=C1CC(S(=O)(=O)O)c2ccccc2/C1=N/O` (stereo not given), the displacement was -0.8%.

Consider `O=[N+]([O-])c1ccc(NCCNS(=O)(=O)c2ccccc2)cc1`, for which the displacement was -0.9%.

As for `CCC(=O)c1ccc(N2CCN(C(=O)c3cc(F)c(F)cc3Cl)CC2)c(F)c1`, the displacement was -8.7%.

In the case of `N#C/C(=C\c1ccccc1Cl)C(N)=O`, the displacement was -2.5%.

For the compound `COc1cc(NC(=O)COc2ccc(Cl)cc2Br)c(OC)cc1Cl`, the displacement came to 2.5%.

As for `CCOC(=O)COc1ccc(Br)cc1/C=C1/C(=O)NN(c2cccc(Cl)c2)C1=O`, the displacement was determined as 3.9%.

In the case of `CCOc1ccc(C(=O)Nc2ccc(NC(=O)c3ccco3)c(OC)c2)cc1Br`, the displacement was -3.1%.

In the case of `CN(/N=C/c1cc([N+](=O)[O-])ccc1O)c1ccccc1`, the displacement was determined as 4.7%.

Consider `Cc1nc2ccccc2n1Cc1ccc(Br)cc1`, for which the displacement stood at 7.1%.

Take `Cn1c(NC(=O)c2ccc(Cl)cc2)nc2ccccc21`: the displacement was 7.4%.

As to `COc1ccc(C(=O)Oc2ccc3c(C)cc(=O)oc3c2C(C)=O)cc1OC`, the displacement was -1.3%.

In the case of `CCc1cccc(C)c1NC(=O)COc1ccc(C)c(C)c1`, the displacement is -1.3%.

Take `Cc1cccc(N2CCN(C(=O)/C=C/c3ccc(Cl)cc3)CC2)c1C`: the displacement is -8.2%.

With `CCOc1ccc(NC(=O)CSc2nc3ccccc3c(=O)n2-c2ccccc2)cc1`, the displacement is 9.1%.

With `CCOC(=O)c1sc(NC(=O)c2ccc(OCC)c(Cl)c2)nc1C`, the displacement was 23.8%.

`O=C(COc1ccc(Cl)cc1)NNC(=O)C(=O)NCCO`: the displacement was -8%.

On to `CCc1c(C)n(CC(=O)N/N=C/c2ccc(Cl)cc2)n2cnnc2c1=O`, for which the displacement was -8.9%.

With `COc1ccc(CC(=O)NCCC2=CCCCC2)cc1`, the displacement is -1.5%.

In the case of `Cc1ccc(C)c(OCC(O)CN2CC(C)CC(C)C2)c1` (stereo not given), the displacement came out at 3.2%.

`CCOP(=O)(OCC)C(Nc1ccccc1)c1ccc2c(c1)OCO2` (stereo not given): the displacement amounted to 13.6%.

As to `Cc1cc(=O)oc2c(C=NC3CCCCC3)c(O)ccc12`, the displacement was -7.2%.

Turning to `COc1ccc(O)c(CN2CCN(Cc3ccc(SC)cc3)CC2)c1`, the displacement came out at 0.9%.

For the compound `Cc1c(C(=O)Nc2ccc(NC(=O)c3ccco3)c(Cl)c2)cccc1[N+](=O)[O-]`, the displacement was -0.9%.

For `CCN(CC)CCN1C(=O)C(=O)/C(=C(/O)c2ccc(Br)cc2)C1c1ccccc1F` (stereo not given), the displacement was -4%.

For `COc1cccc(C(=O)/C=C/c2ccc(OC)c(OC)c2)c1`, the displacement was 3.8%.

As for `O=C1Nc2ccccc2C1=Nc1ccc(Br)cc1`, the displacement was 5.3%.

For `O=C(NCc1ccc(Cl)c(Cl)c1)c1cccc(F)c1`, the displacement amounted to 3.8%.

As for `O=C1Nc2c(Cl)cc(Cl)c3cccc1c23`, the displacement was 1.5%.

Take `COc1ccc(-c2nc3cc(NC(=O)C(C)C)ccc3o2)cc1OC`: the displacement worked out at 13.1%.

In the case of `Cc1ccc(SCCc2ccncc2)cc1`, the displacement was found to be 2.5%.

Take `Oc1ccccc1C(=S)N1CCCCC1`: the displacement was -2.7%.

On to `O=C(Nc1nc2ccc([N+](=O)[O-])cc2s1)c1cccc(F)c1`, for which the displacement worked out at 10.9%.

In the case of `S=C(NCCSCc1ccc(Cl)cc1)Nc1ccccc1`, the displacement stood at 6.3%.

For the compound `COc1cccc(NC(=O)C(=O)N/N=C/c2ccccc2OC)c1`, the displacement is 1.4%.

Turning to `Cc1cc(/C=N/NC(=O)c2ccc(CN3CCOCC3)cc2)c(C)n1-c1ccccc1`, the displacement was -19%.

As to `O=C(Nc1ncc(Cc2cc(Cl)ccc2Cl)s1)c1cccs1`, the displacement stood at 9.1%.

For the compound `O=C(c1cccs1)N1CCCc2ccccc21`, the displacement was -4.2%.

As to `O=C(c1cc(F)c(F)cc1[N+](=O)[O-])N1CCOCC1`, the displacement is -10.1%.

Turning to `CN(C)c1ccc(NC(=O)c2ccc(Cl)cc2)cc1`, the displacement worked out at 12.9%.

Take `COc1ccc(CC(=O)NCC2(c3ccc(OC)c(OC)c3)CCCC2)cc1`: the displacement is -12.5%.

As to `C=CCc1ccccc1OCCn1cc(/C=C2/SC(=S)N(C)C2=O)c2ccccc21`, the displacement is -2.2%.

With `COC(=O)c1ccc(-n2c(C)cc(C=C3C(=O)N(C)C(=O)N(C)C3=O)c2C)cc1`, the displacement stood at 24.9%.

Turning to `CCOC(=O)c1cnn(C(=O)OCC)c1N`, the displacement is -12.9%.

For the compound `CCC(C)c1ccc(NC(=O)C2C3C=CC(C3)C2C(=O)O)cc1` (stereo not given), the displacement was determined as 3.4%.

Consider `O=C1CS/C(=N/N=C/c2ccc(-c3ccc([N+](=O)[O-])cc3)o2)N1`, for which the displacement is 41.1%.

Take `COc1ccccc1/C=N/NC(=O)c1cc(-c2ccc(Cl)cc2)n[nH]1`: the displacement is -5.4%.

Consider `Cc1cc(/C=C2/NC(=O)NC2=O)c(C)n1-c1ccc(Br)cc1`, for which the displacement was determined as 12.4%.

For `COC(=O)c1sccc1NC(=O)c1ccc(Cl)cc1Cl`, the displacement was -13.8%.

Regarding `CC(=O)c1ccc(N2C(=O)C3C(C2=O)C2(C)c4ccccc4C3(C)c3ccccc32)cc1` (stereo not given), the displacement was found to be 5.7%.

For `O=C(c1ccccc1)c1cccc(NC2=NS(=O)(=O)c3ccccc32)c1`, the displacement was found to be 0.4%.

Take `Cc1ccc(C(=O)c2ccc(Br)cc2)cc1S(=O)(=O)Nc1cccc(O)c1`: the displacement was -2.9%.

As for `COc1ccc(NC(=O)CN(c2ccc(Br)cc2)S(C)(=O)=O)c(OC)c1`, the displacement was 3.9%.

Take `CCCCCCCC1=NN2C(=O)CC(=O)N=C2S1`: the displacement worked out at 12.4%.

On to `CC(C)(C)NC(=O)C(=O)N/N=C/c1c(Cl)cccc1Cl`, for which the displacement was -0.9%.

`O=C(Nc1ccc2nn(-c3ccccc3)nc2c1)c1cc(I)ccc1Cl`: the displacement was -0.6%.

For `CC1=C(C(=O)OC(C)C)C(c2cccs2)C(C(=O)OC(C)C)=C(C)N1`, the displacement turned out to be 1.8%.

On to `Brc1cccc(CN2CCN(Cc3ccncc3)CC2)c1`, for which the displacement is -22.5%.

Regarding `CC(C)(C)C(=O)Nc1ccccc1C(=O)Nc1ccccc1`, the displacement came out at 5.6%.

As for `CCCc1nc(-c2ccccc2)c(-c2ccc(OC)c(OC)c2)c(=O)[nH]1`, the displacement is -12.6%.

`CCOC(=O)C1=C(C)N=c2s/c(=C\c3ccc([N+](=O)[O-])cc3)c(=O)n2C1c1ccc(OC)cc1OC` (stereo not given): the displacement was found to be 1.9%.

On to `O=c1/c(=C/c2ccccc2OCc2ccc(Cl)cc2)sc2nc3ccccc3n12`, for which the displacement amounted to 2.3%.

Turning to `O=C(c1ccc(F)cc1)N1CCN(C(=O)c2cccc(Cl)c2)CC1`, the displacement was -12.7%.

On to `COc1ccccc1N=Cc1c(O)c(C(=O)Nc2ccccc2)cc2ccccc12`, for which the displacement stood at 105%.

Consider `O=C1NC(=O)/C(=C/c2ccccc2OCc2ccc(Cl)cc2)S1`, for which the displacement came to 2.7%.

For the compound `COc1ccc(/C=C/C(=O)c2ccc(Cl)cc2)cc1`, the displacement came out at 13%.

In the case of `CCc1c(C)sc(NC(=O)CCc2ccc(OC)cc2)c1C#N`, the displacement was determined as 0.5%.

For `CCOC(=O)CN1C(c2ccccc2OC)Nc2ccc(Br)cc2C1c1ccccc1` (stereo not given), the displacement amounted to 15.6%.

With `CC(C)(C)c1ccc(C(=O)CC(=O)c2ccccc2O)cc1`, the displacement was -8.7%.

For `Cc1ccc(-c2cc(C(F)(F)F)n3ncc(C(=O)NCCc4ccccc4)c3n2)cc1`, the displacement was -5.3%.

Regarding `CCc1ccc(/C=C2\C(=O)NN(c3ccc(Cl)c(Cl)c3)C2=O)cc1`, the displacement came to 5.7%.

For the compound `O=C1C(=O)N(c2cccnc2)C(c2ccc(O)cc2)/C1=C(\O)c1ccccc1` (stereo not given), the displacement was -2.9%.

Take `CC1=C(C(=O)OCC2CCCO2)C(c2ccc(F)cc2)C2=C(CCCC2=O)N1` (stereo not given): the displacement turned out to be 4%.

`CC(C)(C)c1ccc(C2C(C(=O)c3ccco3)=C(O)C(=O)N2c2ncc(S(=O)(=O)c3ccc([N+](=O)[O-])cc3)s2)cc1` (stereo not given): the displacement stood at 8.3%.

For the compound `O=C(COc1ccc(C=C2C(=O)NC(=O)NC2=O)cc1)NCCc1ccccc1`, the displacement was 82.5%.

In the case of `COc1cc(/C=C2\NC(=S)NC2=O)ccc1OC(=O)C12CC3CC(CC(C3)C1)C2`, the displacement worked out at 28.9%.

Turning to `C(=C\c1ccco1)/C=N/Nc1cccc2cccnc12`, the displacement was -16.5%.

In the case of `Cc1ccc(OCCOc2ccc(Br)cc2/C=C2/SC(=S)N(C)C2=O)cc1`, the displacement came out at 8.8%.

With `COc1ccc(N(CC(=O)N2CCOCC2)S(C)(=O)=O)c(OC)c1`, the displacement is -7.1%.
